Measurements as given in the supplement of paper PMC3334620.
Whole data set: some 33,000 sequences, median “E-score (-0.5 to 0.5)” near -0.035, cut for the highest 2% near 0.34. The list shows a part of the results.

What follows are sequences tested against T1, Mot3 (UniProt P54785) (assay: PBM E-score (8-mer binding enrichment) (E-score (-0.5 to 0.5)); higher = stronger / more preferred TF binding; most listed sequences are background and not binding sites). Details: protein concentration: 200 nM; construct: GST-full length.
T1 sequence: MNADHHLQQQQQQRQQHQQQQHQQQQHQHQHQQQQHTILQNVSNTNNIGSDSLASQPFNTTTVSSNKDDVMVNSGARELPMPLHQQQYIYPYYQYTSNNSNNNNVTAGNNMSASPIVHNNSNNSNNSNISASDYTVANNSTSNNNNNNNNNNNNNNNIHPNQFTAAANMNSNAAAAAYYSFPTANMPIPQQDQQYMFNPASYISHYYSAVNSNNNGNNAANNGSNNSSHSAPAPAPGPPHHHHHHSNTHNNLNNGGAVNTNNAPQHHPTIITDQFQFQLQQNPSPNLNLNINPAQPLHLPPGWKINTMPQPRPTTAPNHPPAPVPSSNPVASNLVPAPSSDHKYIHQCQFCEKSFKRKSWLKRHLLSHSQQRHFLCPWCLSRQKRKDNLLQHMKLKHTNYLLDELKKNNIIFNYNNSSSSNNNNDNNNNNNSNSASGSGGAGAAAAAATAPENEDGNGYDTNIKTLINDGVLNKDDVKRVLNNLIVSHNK
Procedure, shortened: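 Using PURExpress in vitro transcription/translation, GST-tagged yeast transcription factors were made in full-length or DNA-binding-domain form. These were applied at about 100-200 nM to double-stranded universal all-10-mer Agilent arrays, and bound protein was detected with fluorescent anti-GST. Scans were normalised with masliner before the Universal PBM Analysis Suite assigned E-scores to ungapped eight-base words pooled with their reverse complements.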

Sequence | PBM E-score
CTGGGTTA | 0.0528
GAGGTTCC | 0.0675
CCTCTTGC | 0.0662
GAACGCCA | -0.0986
ACCCGGTA | 0.0102
TGCTTGAA | 0.125
CATTGTGA | -0.0102
CCTCGGGC | -0.147
ACGGAGGA | 0.0801
CCACATTA | 0.0425
CGCGAGTA | 0.0414
AACGACGG | -0.0151
TAACTCAA | 0.117
CCTTGCAG | -0.0164
GCGAACAC | -0.0397
ATCTGCTG | -0.156
ATATGCGA | -0.0974
GGCCTCAC | -0.1
AAACTGTG | 0.136
GATGACAA | 0.101
AGGCGCTC | 0.214
CTCACCTC | -0.177

Sequence | PBM E-score
CCAGGGGC | -0.137
CTCCCCCA | -0.217
CTGGTGTC | -0.212
CTCGACAG | -0.12
AAGGAGCA | -0.0482
CACAATCC | 0.0246
ACTCACGA | 0.0879
ATTTTTAG | -0.0236
GACACTGC | -0.0476
CCATAACC | -0.127
GAGCTGCC | -0.0189
CGGAAAGA | -0.166
CCAAACTA | 0.129
AACGAACT | -0.111
TCGTCGCA | -0.141
ACAACGAG | 0.0604
ATGCGGTA | -0.239
TATTACAA | 0.297
CCGTCTGC | -0.129
AAATGTCG | 0.107
AGCCAAAT | -0.0958
AATCTCAT | 0.119

Sequence | PBM E-score
CAGTCACA | 0.181
CTAGGGGA | -0.216
CGAATTCA | -0.114
CCTACGTA | 0.257
CTGGATCA | -0.0828
AAATGGCG | 0.0242
AGCCAGGC | 0.24
CGGCAATA | 0.0917
TAGAACTA | -0.0352
ACGATAGT | 0.144
CTGGGGGC | -0.151
ATCGGTTG | -0.0221
ATGAGGCG | -0.119
AGCAACGG | -0.185
AGCAATGA | -0.185
GGAGTTCA | -0.0454
TGATCACA | -0.0455
CAGGATTC | 0.0484
GCACCTTA | 0.0482
ACTTAGAG | -0.224
CGGACTAC | -0.0735
CAGCAGGC | 0.315

Sequence | PBM E-score
CGGCCACG | -0.196
CGATCACG | 0.0607
CGCGAAGC | 0.0278
ACAGTCTC | -0.109
AGCGCAGG | -0.005
ACGTCCAT | 0.00297
AGGTGATC | -0.162
GAGGGTAC | -0.16
AGCCGGTG | -0.171
ATCCTACC | -0.0465
CTCGCAGA | -0.354
ACGTATTA | 0.248
GGGTTACA | 0.0512
CACTCGTA | 0.0815
TCCGCTCA | -0.00098
ATTGAAAC | 0.0723
ACTAATGA | -0.00441
GGAATTGA | 0.0808
CCGGATCC | -0.266
CCCAGTCA | -0.204
